Laboratory results published in the supplement of paper PMC3334620.
Over roughly 33,000 sequences, “E-score (-0.5 to 0.5)” has its median near -0.035; the highest 2% begin near 0.34. The list shows a part of the results.

Each sequence was assayed against T1, Mot3 (UniProt P54785) (assay: PBM E-score (8-mer binding enrichment) (E-score (-0.5 to 0.5)); higher = stronger / more preferred TF binding; most listed sequences are background and not binding sites). Details: protein concentration: 200 nM; construct: GST-full length.
T1 sequence: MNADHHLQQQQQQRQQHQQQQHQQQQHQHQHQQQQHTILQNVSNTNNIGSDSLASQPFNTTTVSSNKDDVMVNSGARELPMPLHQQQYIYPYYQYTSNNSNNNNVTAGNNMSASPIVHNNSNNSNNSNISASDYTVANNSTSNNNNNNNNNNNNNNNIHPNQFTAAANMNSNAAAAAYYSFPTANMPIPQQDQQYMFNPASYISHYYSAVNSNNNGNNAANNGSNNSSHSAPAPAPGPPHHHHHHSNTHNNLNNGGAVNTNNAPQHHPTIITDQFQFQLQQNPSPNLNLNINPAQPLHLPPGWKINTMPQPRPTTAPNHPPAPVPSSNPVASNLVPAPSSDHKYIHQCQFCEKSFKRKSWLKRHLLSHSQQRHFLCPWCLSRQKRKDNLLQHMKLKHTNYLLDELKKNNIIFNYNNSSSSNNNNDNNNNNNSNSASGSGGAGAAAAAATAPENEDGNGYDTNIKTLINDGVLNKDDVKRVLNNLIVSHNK
In short: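 Full-length yeast transcription factors or their DNA-binding domains, GST-tagged and expressed with PURExpress, were applied at about 100-200 nM to universal all-10-mer Agilent arrays. These arrays had been made double-stranded by primer extension on fresh or once-stripped slides. Detection used fluorescent anti-GST, normalisation used masliner, and E-scores for ungapped eight-base words pooled with reverse complements came from the Universal PBM Analysis Suite.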

Row | Sequence | PBM E-score
1 | CTAGGGCC | -0.139
2 | CCGATCAC | -0.0956
3 | CGTGGGGA | -0.145
4 | AGGGCCAT | -0.295
5 | AGCCCTGC | -0.187
6 | GTTCGTCA | -0.106
7 | TAAACCGA | 0.0216
8 | CAGACGCG | -0.0957
9 | AGCTCCGA | -0.14
10 | CGGGCCCG | -0.192
11 | CCGCTAAG | -0.146
12 | AGTAGATG | -0.0168
13 | CAGGCCAC | 0.288
14 | AGCACGCG | 0.17
15 | AGCTTGGC | -0.158
16 | ACTCATTG | 0.0532
17 | GGGAGTAA | -7e-05
18 | GTGACACA | 0.0545
19 | CTATTCAA | 0.084
20 | AGGGGTAC | -0.0837
21 | ACCGGGAA | -0.0555
22 | GGAGCCCA | -0.183
23 | GACTGTAA | 0.147
24 | GGGGCCAA | -0.303
25 | AGAGCTGG | -0.28

Row | Sequence | PBM E-score
26 | ACTTAGGA | 0.12
27 | GTAGTTAA | 0.229
28 | GCCTTTGA | 0.304
29 | GAGTAGGC | 0.179
30 | CACCTGGC | -0.125
31 | ATACGGTA | -0.0734
32 | ATACCACA | 0.0752
33 | GCGGTAGC | -0.235
34 | ATAATGAT | 0.0465
35 | GAAAAAAC | 0.136
36 | CTTTCTCA | 0.162
37 | AGGTGCCA | -0.0193
38 | AGATGGAG | -0.111
39 | CTTGATGC | -0.0379
40 | AAGAACTT | 0.0188
41 | ACCCAACC | -0.133
42 | TCGGCAGA | -0.14
43 | GAGACGAA | -0.172
44 | GCGTCTCC | -0.056
45 | CGTGTTCC | 0.221
46 | CGAGACCC | -0.0978
47 | CTTCGTTC | -0.0566
48 | CCAGGTGA | -0.0709
49 | ACCGCTTC | -0.267
50 | AGGGGGAC | -0.298

Row | Sequence | PBM E-score
51 | CCAATCTC | -0.0686
52 | ACCTAACC | -0.00768
53 | ACATGACA | 0.343
54 | AAATCAAG | 0.0542
55 | CCAAATAA | 0.105
56 | GTATCTTA | 0.0793
57 | ATGGTATG | 0.0834
58 | CCCCGATC | -0.356
59 | CTATATTC | -0.0131
60 | CTAATGGA | -0.297
61 | ACGAGGCT | 0.0334
62 | GGGCATGA | -0.153
63 | CCGAGCAG | -0.158
64 | AACACCAG | -0.105
65 | ATTAACCA | 0.0114
66 | CCTCCGGA | -0.264
67 | GTGTTTTA | 0.219
68 | AACGAGGT | -0.0123
69 | AGTACACT | 0.0534
70 | GTTCCGAA | -0.0115
71 | TCAGCAGA | -0.256
72 | AACTGGTA | -0.115
73 | TTTCAAAA | 0.193
74 | TAGGGGGA | -0.264
75 | TAGCGGGA | -0.137

Row | Sequence | PBM E-score
76 | GCTACAAC | -0.0719
77 | CTACAATA | 0.101
78 | TAACTGCA | 0.0264
79 | CGCTCGTA | -0.0689
80 | AAGTGAGA | -0.207
81 | ATTCTCTC | -0.103
82 | ATCATCAA | -0.172
83 | TCGATGAA | 0.14
84 | GTCAAGCA | -0.145
85 | AGTTAAAT | 0.0894
86 | GTCCCTCA | -0.316
87 | CGGTCTCA | -0.151
88 | ATCTCCAA | -0.0721
89 | CCGGAAGC | -0.344
90 | ACAGTAAG | -0.0563
91 | ATTCAACC | -0.106
92 | TAAGTGGA | 0.0328
93 | AGTCGCTG | 0.0387
94 | GCACCGCA | 0.0358
95 | ACAGATTC | 0.137
96 | AAGTGTCT | 0.0575
97 | ATTTACAG | 0.228
98 | AAAGAGTC | -0.253
99 | ACCGCCAC | -0.0442
100 | ATCGGCAA | -0.0592

Row | Sequence | PBM E-score
101 | ACTGCAGC | -0.192
102 | AAGGAATT | -0.0259
103 | GCCGCCCC | -0.286
104 | TGTCGACA | 0.111
105 | AGGTGAAG | 0.0316
106 | GTACATAA | 0.306
107 | AAACTCGG | -0.0447
108 | ACCTCCTG | -0.158
109 | ACCCTGGG | -0.193
110 | GATCAAGA | -0.0898
111 | CACCGAGG | -0.146
112 | AATGAAAC | 0.186
113 | AACGCGGG | 0.0474
114 | CATCAGCC | -0.218
115 | ACCTGGGG | -0.106
116 | CCGCTTAA | -0.0697
117 | CGACGCCC | -0.151
118 | CATGATCA | 0.142
119 | CCAGAGGC | -0.247
120 | CTGCATTA | 0.0247
121 | TAAGAGTA | -0.0163
122 | GGACTGGA | -0.236
123 | AGGCTATA | 0.157
124 | AGATATTA | -0.212
125 | CCAGCCAG | -0.318

Row | Sequence | PBM E-score
126 | AGACGCCA | -0.221
127 | GCGATCCA | -0.135
128 | TACCTTCA | 0.376
129 | CATTAATA | 0.101
130 | GTGGAGTA | -0.114
131 | ACGTCTCG | 0.0294
132 | ACGAACGG | -0.0309
133 | AATAGAGA | -0.0351
134 | GCATAGAA | 0.074
135 | CATCCCCA | -0.119
136 | CAAGCGAG | -0.0117
137 | CCGCGCGC | -0.274
138 | AACCGTGG | -0.132
139 | ACCCAGTA | -0.0631
140 | GGTAGACA | -0.0476
141 | ATCTCTTA | 0.116
142 | CTGCTGCC | 0.0731
143 | AAGCAGCT | -0.0995
144 | ATGTGCAC | -0.044
145 | AGAGTCCC | -0.341
146 | CTCACACA | -0.0904
147 | GAATGTCA | 0.00909
148 | CCAGACCA | -0.0567
149 | GCTAGAAA | 0.00459
150 | AGAATTAC | 0.241

Row | Sequence | PBM E-score
151 | GACACACC | 0.12
152 | TGAGCCAA | -0.0395
153 | CTATGCAC | 0.00726
154 | CAACTGGA | -0.287
155 | GATGCGCC | 0.0303
156 | AAGAATTG | 0.0628
157 | ACGCTAGC | -0.0971
158 | TAGCCATA | -0.0449
159 | ATGGGAGC | -0.193
160 | ATCTCCCC | -0.218
161 | AGTGCATA | 0.0511
162 | ATGGGTCA | -0.107
163 | ACAAATTA | 0.121
164 | CCCTTAGA | -0.275
165 | CGTTCTCA | 0.0295
166 | TGACACAA | 0.163
167 | AATGTGTC | -0.00988
168 | CCATCCCA | -0.197
169 | ACTACGCA | 0.181
170 | CAGAGAGC | -0.316
171 | AACGGGCC | -0.116
172 | GGTTCGAC | -0.00155
